This note sets out measurements from article PMC6919601, “Identification of Plasmodium dipeptidyl aminopeptidase allosteric inhibitors by high throughput screening” (PLoS ONE, 2019).

Screen size: about 110,000 compounds; about 230 (0.21%) showed an effect of 50% or more. This is one part of the list.
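Further: 30 min substrate incubation versus DMSO and 10 µM JCP410 controls.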

Chain of DPAP1 (Q8IIJ9 whole entry, looked up): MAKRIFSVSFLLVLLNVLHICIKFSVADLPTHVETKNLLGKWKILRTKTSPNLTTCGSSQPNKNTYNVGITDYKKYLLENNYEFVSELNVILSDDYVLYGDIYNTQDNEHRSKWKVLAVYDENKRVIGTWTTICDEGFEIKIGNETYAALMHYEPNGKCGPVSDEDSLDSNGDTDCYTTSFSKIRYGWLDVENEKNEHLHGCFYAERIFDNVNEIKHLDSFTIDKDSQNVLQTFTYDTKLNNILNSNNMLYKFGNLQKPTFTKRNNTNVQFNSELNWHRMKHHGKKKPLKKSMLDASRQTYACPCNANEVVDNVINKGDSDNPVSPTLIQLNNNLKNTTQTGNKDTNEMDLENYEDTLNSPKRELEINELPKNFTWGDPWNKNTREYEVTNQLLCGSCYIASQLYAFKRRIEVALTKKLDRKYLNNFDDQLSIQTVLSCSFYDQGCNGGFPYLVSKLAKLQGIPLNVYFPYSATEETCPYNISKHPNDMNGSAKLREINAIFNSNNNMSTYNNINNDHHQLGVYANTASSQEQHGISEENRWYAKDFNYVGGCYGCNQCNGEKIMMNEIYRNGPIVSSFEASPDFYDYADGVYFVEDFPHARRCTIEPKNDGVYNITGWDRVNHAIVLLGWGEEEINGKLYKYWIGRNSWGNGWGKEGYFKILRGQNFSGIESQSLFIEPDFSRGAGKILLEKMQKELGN

The test has as its target DPAP1 (Plasmodium falciparum, UniProt Q8IIJ9). Put plainly: primary screen, percent inhibition; read by cleavage of a fluorogenic dipeptide substrate; higher = more effect of the substance. More on the design: species or system P. falciparum D10 trophozoite lysates; single well.
Take `O=C1c2ccccc2C(=O)N1c1ncc(Cc2cc(Cl)ccc2Cl)s1`: the “% Inhibition @ 10 uM” value is 7.93%.
In the case of `COc1cc(-c2cc(NC(=O)COCc3cc(-c4ccco4)on3)on2)cc(OC)c1OC` it was 1.34%.
Consider `CC(=O)N(CCN(C)C)c1nc2cc(C)cc(C)c2s1`, for which the “% Inhibition @ 10 uM” value amounted to 1.46%.
To `Cc1ccccc1-c1nc(CSc2nc(O)c3c(n2)CCC3)c(C)o1` belongs -1.21%; to `CCOC(=O)N1CCc2c(sc3c2c(=O)n(Cc2ccccc2)c(=O)n3Cc2ccccc2F)C1`, 0.44%; to `COc1ccc(N2C(=O)CC(N3CCC(C(N)=O)CC3)C2=O)cc1` (centres unmarked), -5.07%.
`O=C1C2CCCC1C(c1ccccc1)NC2c1ccccc1` (centres unmarked): the “% Inhibition @ 10 uM” value came out at 10.4%.
In the case of `Cc1cccc(CN2CCC(CNC(=O)C3c4ccccc4C(=O)N4CCc5ccccc5C34)CC2)c1` (centres unmarked) it was -0.631%; in that of `COc1cccc2cc(C(=O)/C=C/c3cccc(F)c3)c(=O)oc12`, 3.1%.
In the case of `Cc1ccc(-c2nnc(C)o2)cc1` it was -1.68%; in that of `Cc1cc(O)nc(SCC(=O)C23CC4CC(CC(C4)C2)C3)c1C#N`, 1.76%.
In the case of `COc1cc2c(cc1NC(=O)CCn1cc(Br)cn1)oc1ccccc12` it was -1.21%; in that of `CCN1C(=O)N/C(=C/c2cc(Br)ccc2OCc2ccc(C(=O)O)cc2)C1=O`, -4.54%.
On to `O=C(CCCN1C(=O)c2ccccc2C1=O)Nc1cccc(Cl)c1Cl`, for which the “% Inhibition @ 10 uM” value is given as -1.16%.
As for `CCCNC(=O)CSCc1cnn(-c2ccccc2)c1-n1cccc1`, the “% Inhibition @ 10 uM” value was -1.08%.
For the molecule `N#CCc1ccc(NC(=O)COc2cccc(Br)c2)cc1`, the “% Inhibition @ 10 uM” value is reported as 0.231%.
In the case of `Cc1ccc(/N=C2/SC(CC(=O)O)C(=O)N2C2CCCCC2)cc1` (centres unmarked) it was -4.39%.
Consider `Cc1nc(SCC(=O)N2CCCCCC2)c2c3c(sc2n1)CCC3`, for which the “% Inhibition @ 10 uM” value came to 0.13%.
To `CCOc1ccc(NC(=O)CC(C)C)cc1` belongs -0.872%; to `COc1ccc(-c2cn(-c3ccc(C)cc3)c(=O)n2-c2ccccc2)cc1`, -5.98%.
Take `COc1cccc(OC)c1C(=O)Nc1ccccc1C(F)(F)F`: the “% Inhibition @ 10 uM” value is listed as -5.65%.
To `O=C(O)CCCCCNC(=O)c1ccc(Br)cc1` belongs -1.97%; to `O=C(Nc1nc2ccccc2s1)C1CCN(c2ncnc3c2nc2n3CCCCC2)CC1`, 5.92%.
Regarding `CSCCC1C(C#N)=C(N)Oc2[nH]nc(-c3cccs3)c21` (centres unmarked), the “% Inhibition @ 10 uM” value is given as -2.16%.
In the case of `COc1ccc(Cl)cc1N(CC(=O)Nc1ccccc1Cl)S(C)(=O)=O` it was -5.13%; in that of `C#CCOc1ccc(C2C(C#N)=C(N)OC3=C2C(=O)CCC3)cc1OC` (centres unmarked), -6.51%; in that of `CSc1nc(C)cc(OCCNC(=O)COc2ccc(Cl)cc2C)n1`, 0.884%.
In the case of `Cc1ccc(C(C)C)c(OCC(O)CN2CCOCC2)c1` (centres unmarked) it was -5.51%.
To `CCOc1ccc(C2CC(=O)NC(SCC(=O)Nc3ccc(Br)cc3)=C2C#N)cc1` (centres unmarked) belongs -6.38%; to `CCN(CC)c1ccc(C2C(C#N)=C(N)OC3=C2C(=O)CCC3)cc1` (centres unmarked), 3.65%; to `Cc1nc2ccccc2n1CCOc1ccc(Cl)cc1`, 2.79%.
As to `Cc1nc2ccccc2cc1C(=O)NCc1ccccc1`, the “% Inhibition @ 10 uM” value worked out at 4.31%.
To `O=C1CC(c2ccc(Cl)cc2)NC(NC(=O)c2ccc(OC(F)F)cc2)=N1` (centres unmarked) belongs -5.05%; to `CCN(CC)CCN(C)Cc1ccc(SC)cc1`, 3.18%.
Turning to `COc1ccc(OCC(=O)Nc2ccc(S(=O)(=O)NC(C)=O)cc2)cc1`, the “% Inhibition @ 10 uM” value is recorded as -13.4%.
In the case of `Brc1cccc(CN2CCN(c3ncccn3)CC2)c1` it was -0.473%.
In the case of `COC(=O)c1cc2c(=O)n3cccc(C)c3nc2n(CCc2ccccc2)c1=N` it was -1.47%; in that of `CC(=O)c1c(C)nc2ccccc2c1O`, 0.627%; in that of `CCCC1CCc2c(sc(NC(=O)COc3ccccc3C)c2C(N)=O)C1` (centres unmarked), 3.56%.
To `N#Cc1c(NC(=O)/C=C/C(=O)O)sc2c1CCC2` belongs 1.67%.
On to `COc1cccc2c(-c3ccccc3)nc(SCC(=O)Nc3ncc(C)s3)nc12`, for which the “% Inhibition @ 10 uM” value was -4.67%.
For the molecule `NC(=O)CSc1nc2c(N)ncnc2n1Cc1ccccc1`, the “% Inhibition @ 10 uM” value is -2.21%.
In the case of `Cc1cc(C)n(-c2nc(-c3ccccc3)nc3c2COC(C)(C)C3)n1`, the “% Inhibition @ 10 uM” value is on record as -7.33%.
In the case of `Cc1ccc(S(=O)(=O)N(CC(=O)NCCO)Cc2ccccc2F)cc1` it was -3.33%; in that of `Cc1cc(C)cc(NC(=O)CSc2ccccn2)c1`, -10.4%; in that of `O=[N+]([O-])c1ccc(O)cc1CN1CCCCCCC1`, 1.57%.
In the case of `O=C(Nc1ccc(Cl)cc1)c1cccc(N2C(=O)C3C4C=CC(C5CC45)C3C2=O)c1` (centres unmarked) it was 5.97%; in that of `CCOc1ccccc1CNC(=O)Cn1nc(CC)n2c(cc3sc(C)cc32)c1=O`, 3.4%; in that of `Cc1ccc(C)c(Cn2c3ccccc3c3cnn(CC(=O)NCCCN4CCCCC4)c(=O)c32)c1`, 1.8%.
In the case of `O=c1cccc2n1C[C@H]1C[C@@H]2CN(Cc2ccc(Cl)cc2)C1` it was 1.54%; in that of `CCOc1ccccc1C1C(C#N)=C(N)Oc2[nH]nc(-c3ccccc3)c21` (centres unmarked), 10%.
With `COCC(=O)NCCc1nc2ccccc2[nH]1`, the “% Inhibition @ 10 uM” value was found to be 7.85%.
Regarding `N#Cc1c(NC(=O)CSc2ncccn2)oc(-c2ccccc2)c1-c1ccccc1`, the “% Inhibition @ 10 uM” value is given as -3.16%.
In the case of `O=C(NCCc1ccc(F)cc1)C1CCN(c2cnccn2)CC1` it was 0.758%; in that of `Cc1ccc(C(=O)Nc2cc(C)ccc2C)cc1`, -1.22%; in that of `CCc1ccc(-c2cc3c(=O)n(CC(=O)NC(C)CC)nc(C)n3n2)cc1` (centres unmarked), -2.85%.
To `CCCOc1cccc(C2c3c(oc4cc(C)cc(C)c4c3=O)C(=O)N2CCO)c1` (centres unmarked) belongs 6.34%.
In the case of `Cc1n[nH]c(C)c1CCCCCOc1ccc(Cl)cc1` it was 5.01%.
As to `Cc1nn(C)c(C)c1/C=C1\CCCC2=C1OC(N)=C(C#N)C2c1c(C)nn(C)c1C` (centres unmarked), the “% Inhibition @ 10 uM” value is 5.52%.
To `CCCCCCOC(=O)c1c[nH]nc1[N+](=O)[O-]` belongs -5.96%.
Take `CCOc1ccccc1NS(=O)(=O)c1ccc(F)cc1`: the “% Inhibition @ 10 uM” value is given as 1.35%.
As for `CC(C)OCCCNC(=O)/C(C#N)=C/c1c(Oc2ccccc2Cl)nc2ccccn2c1=O`, the “% Inhibition @ 10 uM” value was 1.06%.
For the molecule `Fc1ccc(CN2CCOCC2)cc1F`, the “% Inhibition @ 10 uM” value is listed as 3.24%.
Consider `O=C(CCCN1C(=O)c2cccc3cccc(c23)C1=O)N1CCN(c2cccc(Cl)c2)CC1`, for which the “% Inhibition @ 10 uM” value was determined as 1.34%.
For `O=C(Cn1ncc2c1-c1ccccc1OC2)N1CCC2(CC1)OCCO2`, the “% Inhibition @ 10 uM” value turned out to be 3.32%.
In the case of `O=C1CCC(=O)N1CN(C(=O)C(F)(F)F)c1ccccc1` it was -2.68%; in that of `COc1cc(NC(=O)c2ccc(Br)s2)cc(OC)c1`, -6.74%.
For the molecule `CC(C)(C)c1ccc(C(CC(=O)O)N2C(=O)c3ccccc3C2=O)cc1` (centres unmarked), the “% Inhibition @ 10 uM” value came to 9.03%.
To `COc1ccccc1C(=O)N/C(=C/C=C/c1ccccc1)C(=O)NCc1ccccc1` belongs 30.1%; to `COc1ccccc1NC(=O)c1c(NC(=O)CN(C)C)sc2c1CCC(C(C)(C)C)C2` (centres unmarked), -5.27%.
Turning to `CC1CCc2c(sc(NC(=O)C3CC3c3ccccc3)c2C#N)C1` (centres unmarked), the “% Inhibition @ 10 uM” value is -0.522%.
Turning to `COc1cc(Br)cc(/C=C2\SC(c3ccccc3)=NC2=O)c1O`, the “% Inhibition @ 10 uM” value was determined as 38.6%.
As for `COc1ccc(C2=NN(c3ccc(Cl)c(Cl)c3)C(c3ccc(OC)cc3)C2)cc1` (centres unmarked), the “% Inhibition @ 10 uM” value is -0.128%.
`COc1ccc(/C=C/C(=O)Nc2cccc(C(F)(F)F)c2)cc1`: the “% Inhibition @ 10 uM” value is listed as -3.27%.
To `COc1ccc(C2=NN(CC(=O)NCC3CCCO3)C(=O)CC2)cc1` (centres unmarked) belongs -0.0542%.
To `CCCCC1CCC(C(=O)Nc2c3c(nn2-c2ccc(F)cc2)CS(=O)(=O)C3)CC1` (centres unmarked) belongs -3.35%; to `O=C(Nc1ccc(Br)cc1F)c1ccc(NS(=O)(=O)c2cccc(F)c2)cc1`, 5.15%.
For the molecule `CCOC(=O)c1cc(C)n(CC2CCC(C(=O)N3CCCC(C)C3)CC2)c1C` (centres unmarked), the “% Inhibition @ 10 uM” value is reported as 1.65%.
In the case of `O=C(CCS(=O)(=O)c1cccc2nsnc12)NC(c1ccccc1)c1ccccc1` it was 4.27%; in that of `CCCC1CCC(c2ccc(C(=O)OCC(=O)c3ccc(Br)cc3)cc2)CC1` (centres unmarked), -2.51%.
In the case of `Cc1ccc2nc3c(O)n(CCCN4CCN(C5CCCCC5)CC4)cnc-3c2c1` it was -5.36%; in that of `O=C(c1ccco1)N(CCN(C(=O)c1ccco1)c1ccccc1)c1ccccc1`, 1.37%.
In the case of `CC(NC(=O)C1CCCN(C(=O)c2cc3sccc3n2C)C1)c1ccccc1` (centres unmarked) it was -2.84%; in that of `Cc1nc2c(c(C)nn2C(C)(C)C)c(C)c1CCC(=O)NCCCN1CCCC1=O`, 0.953%.
As to `COc1ccc(S(=O)(=O)NCc2ccccc2)c2ccccc12`, the “% Inhibition @ 10 uM” value worked out at 2.3%.
On to `CC1CCC(NCCCN2CCCC2=O)CC1` (centres unmarked), for which the “% Inhibition @ 10 uM” value is on record as -7.35%.
Turning to `Cc1cc(C)cc(N(CC(=O)NCCSc2nc3ccccc3s2)S(=O)(=O)c2ccccc2)c1`, the “% Inhibition @ 10 uM” value was found to be 0.219%.
In the case of `CC(=O)Nc1ccc(Cc2ccc(NC(C)=O)c(C#N)c2)cc1C#N`, the “% Inhibition @ 10 uM” value is 4.8%.
In the case of `Cc1nc2ccc(NC(=O)Nc3cccc4ccccc34)cc2s1` it was -0.545%.
With `O=C(Cn1cnc2ccccc2c1=O)c1cccs1`, the “% Inhibition @ 10 uM” value came out at 0.528%.
As to `CCCCOC1CS(=O)(=O)CC1OCCCC` (centres unmarked), the “% Inhibition @ 10 uM” value is listed as -5.28%.
To `CCOc1ccc(-c2csc(/C(C#N)=C/c3ccc(Cl)cc3)n2)cc1` belongs -4.21%; to `CSc1ccc(C2C(C#N)=C(N)OC3=C2C(=O)CC(C)(C)C3)cc1` (centres unmarked), 1.96%.
`Oc1nc2ccccc2c2nncn12`: the “% Inhibition @ 10 uM” value is on record as -4.76%.
For the molecule `CC(NC(=O)c1cccs1)c1ccccc1` (centres unmarked), the “% Inhibition @ 10 uM” value turned out to be 0.583%.
Take `CCCCc1ccc(C(=O)Nc2ccc(Cl)c3c2C(=O)c2ccccc2C3=O)cc1`: the “% Inhibition @ 10 uM” value is recorded as -1.98%.
With `Cc1ccc(C(=O)Nc2ccc(C)cn2)cc1`, the “% Inhibition @ 10 uM” value is -1.61%.
To `CCCCNc1nc2c(-c3ccc(OC)cc3)nnn2c2ccccc12` belongs 2.04%; to `c1ccc(-c2cn(-c3ccccc3)c3ncnc(N4CCCCC4)c23)cc1`, -2.49%; to `COCCCn1c(SCC(=O)N2CC(C)CC(C)C2)nc2c(sc3ccccc32)c1=O` (centres unmarked), 6.35%.
Regarding `CCC(C)OC(=O)C1=C(C)NC(=O)CC1c1ccccc1C` (centres unmarked), the “% Inhibition @ 10 uM” value is given as -1.62%.
